From PubChem BioAssay AID894 (National Center for Advancing Translational Sciences (NCATS), 2007)
Screen size: about 150,000 compounds; about 6,500 (4.3%) were called active. Inconclusive means that the source gave no clear call. Such entries were picked first, then a sample of the others. Calls follow the shape of the dose curve; as a rule, active = well fitted inhibition curve with a large enough effect (not every such curve was filed as active); inconclusive = small, poorly fitted or top-dose-only effect, or another doubt; inactive = no such curve, though single readings can be large or run the other way. No potency is given beside an inconclusive call; the fits are too rough.

Each compound was assayed against 15-hydroxyprostaglandin dehydrogenase [NAD(+)] (Homo sapiens) (UniProt P15428) (assay: qHTS Assay for Inhibitors of HPGD (15-Hydroxyprostaglandin Dehydrogenase)). Conditions: purified HPGD, NADH fluorescence kinetic, PGE2 substrate; activity change, negative = inhibition: active compounds read low.
UniProt P15428, sequence (P15428 whole entry, looked up): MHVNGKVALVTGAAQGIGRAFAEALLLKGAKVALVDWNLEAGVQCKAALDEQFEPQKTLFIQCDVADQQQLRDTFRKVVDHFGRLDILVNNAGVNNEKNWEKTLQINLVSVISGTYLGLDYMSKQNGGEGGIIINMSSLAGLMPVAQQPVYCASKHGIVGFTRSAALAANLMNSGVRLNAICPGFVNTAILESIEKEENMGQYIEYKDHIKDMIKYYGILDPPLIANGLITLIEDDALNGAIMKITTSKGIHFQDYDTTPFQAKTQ
Outline: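 NADH formation kinetics: reaction with 30 uM PGE2 and 1 mM NAD+ (final), 20 nM enzyme, Tris-HCl pH 8 with Tween 20, after 15 min compound preincubation at room temperature. Fluorescence change, last versus first of five reads.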
% is scaled to controls: 0 for no effect and ±100 for the full control effect; potency is read from the fitted curve at half-maximal effect; tags tell the direction and shape of the fitted curve.

SMILES | Potency | activity change, negative = inhibition
CC(C)c1onc(C(=O)NCc2ccccc2)c1[N+](=O)[O-] | inconclusive [inhibitor, partial curve, poor fit] | 
COC(=O)c1ccc(Nc2nnc(-c3ccc(C)c(S(=O)(=O)NCC4CCCO4)c3)c3ccccc23)cc1 (stereo unspecified) | inconclusive [inhibitor, partial curve] | 
COc1ccc(C2=CC(=O)OC(C)(c3ccccc3)O2)cc1 (stereo unspecified) | inconclusive [inhibitor, partial curve, poor fit] | 
O=C(c1ccc(F)cc1)C1CCN(CCn2c(=O)[nH]c3ccccc3c2=O)CC1 | active: 7.94 µM | 
O=C(Nc1nnc(-c2ccccc2)o1)c1cc(Cl)sc1Cl | inconclusive [inhibitor, partial curve] | 
CC(=O)C(Sc1ccc2nnc(-c3ccc(C)cc3)n2n1)C(C)=O | inconclusive [inhibitor, single point] | 
COC(=O)c1ccc(NC(=O)C23CCC(C)(C(=O)O2)C3(C)C)cc1 (stereo unspecified) |  | inactive: -7.6%
COc1cccc(OCCCn2cc(/C=C3/C(=N)N4C=C(C)SC4=NC3=O)c3ccccc32)c1 | inconclusive [inhibitor, partial curve] | 
COc1ccc(-c2ncc3ccccn23)cc1 | inconclusive [inhibitor, partial curve] | 
COc1ccccc1Nc1nc(-c2sc(NC(=O)c3ccco3)nc2C)cs1 | inconclusive [inhibitor, partial curve] | 
COc1cc(C)c(CNc2ccc(OC)c(OC)c2)cc1C |  | inactive: -17.1%
Cc1cc(C)n(-c2nc(NCCCO)c3c4c(sc3n2)CCCC4)n1 | inconclusive [inhibitor, partial curve] | 
COc1ccc(/C=N/NC(=O)c2cc(-c3ccc4c(c3)OCO4)n[nH]2)cc1OC | inconclusive [inhibitor, partial curve] | 
CN(C(=O)CSC1=NCCS1)c1ccccc1 |  | inactive: -13.6%
COc1ccc(-c2nc3cnc(OC)nc3n(C3CC3)c2=O)cc1 | inconclusive [inhibitor, full curve] | 
O=C(CCc1nc(-c2ccccc2)no1)N1CCCC1 |  | inactive: -26.4%
CCC(C)NC(=O)CCCCCn1c(=O)[nH]c2cc(OC)c(OC)cc2c1=O (stereo unspecified) | inconclusive [inhibitor, single point] | 
Cc1noc(C)c1CSc1ncnc2sc3c(c12)CCCCC3 | inconclusive [inhibitor, partial curve] | 
O=C(Nn1c(C2CCCCC2)nc2ccccc2c1=O)c1ccc(Cl)c([N+](=O)[O-])c1 |  | inactive: -14.5%
c1ccc(-c2nnc(-c3ccco3)o2)cc1 | inconclusive [inhibitor, partial curve] | 
C=CCn1c(SCc2ccc(C(=O)Nc3nccs3)cc2)nnc1-c1ccc(C)c(Cl)c1 | inconclusive [inhibitor, single point] | 
COC(=O)CCC(=O)Nc1ccc(Br)cc1 | inconclusive [inhibitor, partial curve] | 
O=C(c1cccs1)N1CCN(Cc2ccccc2)CC1 |  | inactive: 0.587%
CCCCCCCC/C=C\CCCCCCCC(=O)NCCc1ccc(O)c(O)c1 | inconclusive [inhibitor, partial curve] | 

SMILES | Potency | activity change, negative = inhibition
COc1ccc(C)cc1NC(=O)C(OC(=O)c1cccc(S(=O)(=O)N(C)c2ccccc2)c1)c1ccccc1 (stereo unspecified) |  | inactive: -17.6%
S=C(Nc1ccccc1Cl)NC1CCN(Cc2ccccc2)CC1 |  | inactive: -7.49%
Cc1c(C(=O)Nc2ccncc2)sc2nc(-c3ccccc3)cn12 | inconclusive [inhibitor, partial curve] | 
CN(C)c1ccc(-c2nc(NCc3cccnc3)c3ccccc3n2)cc1 | inconclusive [inhibitor, full curve] | 
CC1CCc2nn(CC(=O)NC3CCCC(C)C3C)cc2C1 (stereo unspecified) | active: 14.1 µM | 
CC(NC(=O)c1ccccc1NC(=O)c1ccccc1)C(=O)N1CCOCC1 (stereo unspecified) |  | inactive: 0.211%
O=C(CCCCCN1C(=O)c2ccccc2C1=O)Nc1nccs1 | active: 7.08 µM | 
COc1cc(/C=C2/C(=O)NN(c3cccc(F)c3)C2=O)ccc1OC(=O)c1ccco1 | active: 3.98 µM | 
COc1ccc(N(C(=O)CCl)C(C(=O)NCCc2ccccc2)c2cccs2)cc1Cl (stereo unspecified) |  | inactive: -15.6%
CC(C)(C)C(=O)Nc1ccc(C(=O)N/N=C/c2ccccc2OC(=O)c2ccc(Cl)cc2Cl)cc1 | inconclusive [inhibitor, partial curve] | 
O=C(/C=C/c1ccc(Cl)cc1Cl)NCc1ccco1 | active: 15.8 µM | 
CC1Cn2c(nnc2-c2cccc(N)c2)S1 (stereo unspecified) | inconclusive [inhibitor, partial curve] | 
O=C1C(c2ccccn2)=[N+]([O-])c2ccccc21 | inconclusive [inhibitor, partial curve] | 
CCCOc1ccc2c(C)c(CC(=O)OC)c(=O)oc2c1 | inconclusive [inhibitor, partial curve] | 
CCOC(=O)CC(=O)CSc1nc(-c2ccccc2)cc(-c2ccccc2)c1C#N | inconclusive [inhibitor, partial curve] | 
Cc1cc(C)n(Cc2cccc(F)c2)c(=O)c1C#N | inconclusive [inhibitor, partial curve] | 
COC(=O)c1ccc(C(NC(=O)OCc2ccccc2)/C(=C/[C@@H](C)C(=O)NCCF)c2cccnc2)cc1 (stereo partly specified) |  | inactive: -15.7%
O=C(COc1cccc(NC(=O)c2cccs2)c1)c1ccc(F)cc1 | active: 15.8 µM | 
Cc1cccc(C2=NN(c3ccccc3)[C@@H](C(=O)N3CCOC3=O)[C@@H]2c2ccc(F)cc2)c1 | inconclusive [inhibitor, partial curve] | 
Cc1nc2ncnn2c(C)c1CCC(=O)Nc1ccc(S(=O)(=O)N2CCCCCC2)cc1 | active: 15.8 µM | 
CCc1ccc2c(c1)C(C)=CC(C)(C)N2 | inconclusive [inhibitor, partial curve] | 
COc1cccc(C(=O)CN2C(=O)C(C)(C)Oc3ccc(C(=O)N4CCCCCC4)cc32)c1 | active: 2.24 µM | 
COc1nn(CC(=O)N2N=C(C(F)F)CC2(O)C(F)F)cc1[N+](=O)[O-] (stereo unspecified) |  | inactive: -18.2%
COc1ccc(-c2nc3ccccc3s2)cc1O | inconclusive [inhibitor, partial curve] | 

SMILES | Potency | activity change, negative = inhibition
CCC(CC)=NNc1cccc([N+](=O)[O-])c1 | inconclusive [inhibitor, single point] | 
CCOC(=O)Nc1ccc2c(CN3C(=O)NC(CC)(CC)C3=O)cc(=O)oc2c1 | inconclusive [inhibitor, partial curve] | 
CCOC(=O)c1oc2nc(C(C)C)c3c(c2c1N)CC(C)(C)OC3 | inconclusive [inhibitor, partial curve] | 
Cc1cccc(C(=O)CC(=O)c2cc(Cl)ccc2O)c1 | active: 15.8 µM | 
Cn1c(=O)c2c(nc(N/N=C/c3ccc(OC(=O)c4ccco4)cc3)n2Cc2ccc(F)cc2)n(C)c1=O | inconclusive [inhibitor, partial curve] | 
Cc1ccc(-n2c(SCC(=O)Nc3ncc(Cl)cc3Cl)nc3ccccc32)cc1 |  | inactive: -16.1%
CCN(CC)C(=O)CSc1nnc(-c2cc(OC)cc(OC)c2)o1 | inconclusive [inhibitor, partial curve] | 
O=C(c1ccc(CN2CCc3ccccc3C2)cc1)N1CCCCC1 | active: 2.51 µM | 
CSc1nc2nccc(-c3ccc(Oc4ccccc4)cc3)n2n1 | inconclusive [inhibitor, single point] | 
O=C(NC1CCCCCCC1)C1CCC(CNc2c(N3CCCC3)c(=O)c2=O)CC1 (stereo unspecified) | active: 3.98 µM | 
CC(NC(=S)Nc1ccc(S(=O)(=O)N2CCOCC2)cc1)C1CC2CCC1C2 (stereo unspecified) |  | inactive: -6.14%
COC(=O)[C@@]1(Cc2ccc(OC)cc2)[C@H]2c3cc(C(=O)N(C)C)n(CCc4ccc(O)c(OC)c4)c3C[C@H]2CN1C(=O)c1ccccc1 |  | inactive: -6.91%
O=C1/C(=C/c2cccc([N+](=O)[O-])c2)CCc2ccccc21 | inconclusive [inhibitor, single point] | 
Brc1ccc(Cn2c(-c3cncs3)nc3ccccc32)cc1 | inconclusive [inhibitor, single point] | 
Cc1cc(/C=C(\C#N)C(=O)Nc2ccccc2)c(C)n1-c1cccnc1 |  | inactive: -9.91%
CCOc1ccc(C(OC(=O)c2ccco2)C(=O)NCc2ccc(C)cc2)cc1 (stereo unspecified) |  | inactive: -22.9%
COc1cc(C=O)ccc1OS(=O)(=O)c1ccccc1[N+](=O)[O-] | active: 17.8 µM | 
CC(C)OC(=O)/C(=C\C=C\c1ccccc1)NC(=O)c1ccccc1 | inconclusive [inhibitor, partial curve] | 
C[C@H]1Cc2c(COc3ccccc3)nc3c(c2CO1)CN(S(=O)(=O)c1ccc2c(c1)OCCN2C)CC3 |  | inactive: -10.1%
O=C(C1CCC(N2C(=O)C3CC=CCC3C2=O)CC1)N1CCCCC1 (stereo unspecified) | inconclusive [inhibitor, partial curve] | 
O=C(Nc1nc2c(s1)CCCC2)c1cccnc1 |  | inactive: -9.79%
C=CCn1c(SCc2ccccc2C#N)nnc1-c1cc(Br)ccc1O | active: 14.1 µM | 
COc1cc(NC(=O)c2cc(C3CC3)on2)c(OC)cc1Cl | inconclusive [inhibitor, partial curve] | 
